The full ranking holds about 33,000 sequences; the median of “E-score (-0.5 to 0.5)” is about -0.056, and the highest 2% start at about 0.38. The list shows a part of the results.
Target: Stb4 (UniProt P50104)
Assay: PBM E-score (8-mer binding enrichment) (E-score (-0.5 to 0.5)); higher = stronger / more preferred TF binding; most listed sequences are background and not binding sites
Settings: protein concentration: 200 nM; construct: GST-DNA-binding domain
How it was run: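 Bound GST-tagged yeast transcription factors, applied at about 100-200 nM to double-stranded universal all-10-mer Agilent arrays, were detected with fluorescent anti-GST. Scans were normalised with masliner. A modified Wilcoxon-Mann-Whitney statistic, the E-score, was assigned to each ungapped eight-base word pooled with its reverse complement by the Universal PBM Analysis Suite.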

Sequence | PBM E-score
CCGGTGCC | 0.248
AACCCGGA | 0.375
ATGCCATC | -0.0233
ACCTAGCC | 0.0163
AGGCTGTG | -0.155
GTTCAGTA | -0.196
ACGCGGTA | 0.129
GCATATAC | -0.117
ACTACAAA | 0.00768
TTAGCTAA | -0.013
ACCACAAG | -0.0565
CGGTCCGC | 0.26
ACGATCCG | 0.399
ATTGCGTG | -0.0514
GGTCGAGA | -0.15
ATGTCGAG | -0.207
TAATCGTA | -0.218
CCCAAAAA | -0.0931
AGAGGATC | -0.111
TCCTGAGA | -0.136
AAGTAATA | -0.0278
GTCCACAA | -0.193
GCACACAC | -0.077
ACCTAATG | -0.322
CCGCCTAC | 0.0518

Sequence | PBM E-score
CCAAGAAC | -0.274
AGTTCAAT | -0.128
CTTGCAGC | -0.153
AACGTAAG | -0.148
GATTCTGA | 0.0101
ATCTTTAC | -0.0733
CAATACTG | -0.107
CACCTACA | -0.241
ATTAGATC | -0.0358
GCAAGCTA | -0.151
AACTGACT | 0.0534
GCGTACAC | -0.0796
ATCGGATG | 0.451
ACCTACTC | -0.111
AGCCGGCC | 0.234
AAGCTTGA | -0.101
AAGTCAGA | -0.0753
CACGGTCA | -0.197
GAAATATC | 0.205
AGTATGTC | -0.193
GCCCAAAC | -0.0909
ACGACGAA | 0.004
ACTCTACT | -0.165
CCCCCAGA | -0.221
AGAGAAGA | -0.105

Sequence | PBM E-score
TTGAAAAA | -0.13
AAAGTCTT | -0.0539
CGTAATTC | 0.0682
AACTTATG | -0.174
ATTGCGTC | 0.0402
CACCCAAC | 0.00076
CTTAACCC | -0.0251
ACTTGCAG | -0.117
CGCCAGTC | -0.0588
ATAAGCTA | -0.0721
ATGGCCAG | -0.181
AGCGAAAA | -0.0577
TCAACGAA | -0.164
ACTTTCCC | 0.121
CTTGTTTA | -0.0352
CAATCTTA | -0.0555
AACGCGGT | 0.0644
GTATGCCA | -0.0642
CCGTGATC | 0.156
ACCTTGCA | -0.223
ACCAGCGG | 0.0303
AAAGAGAA | -0.14
CCCTTTCC | 0.067
ACCAACAA | 0.017
CCTCAAGA | -0.0159

Sequence | PBM E-score
AGGTAACT | -0.211
GCCATAGC | -0.221
CCTGTAAC | -0.187
AAATCATC | -0.0728
AAAAATGT | 0.0927
AGACTCTG | -0.238
CCCAACAC | -0.155
CACTATGA | -0.193
ACTATAAT | -0.166
AGGAAATC | 0.15
CCACAAAA | 0.0182
ACGTTGCG | -0.0806
AGCAGTGG | -0.211
AGGTCTGA | -0.231
TTATCCAA | -0.139
GACGGAAC | 0.317
AACGCCGA | 0.372
CTGCGACC | -0.176
GGACAATA | 0.132
ATAGCGGA | 0.205
CTAGCTTA | -0.136
AGCGGAAC | 0.316
GACAGCGC | 0.0726
CCTTGCCG | 0.241
AGAAAAAT | -0.104

Sequence | PBM E-score
ACTCGAGG | -0.152
GTTGTATA | -0.245
AAGTAGCT | -0.251
AAGAGGCA | -0.186
AATGATCC | 0.207
AGAACAAG | -0.146
CCAAGCAA | -0.218
AGTTAGAG | -0.174
CTGTTTCC | 0.0989
CACGTGCC | -0.0363
AGAATTGA | -0.194
GTTAGTGA | -0.102
AAAGTCGG | 0.269
ACGTGTGC | -0.303
CTTTAGCA | -0.0369
CGGAAGAC | 0.367
AAGTTGGA | -0.167
ACATGTGG | -0.0365
GCCTTAAA | 0.0358
ACGCCCAT | 0.0322
CACTATTA | 0.0788
CATCAGAC | -0.0986
CGTTAGGA | 0.0354
CGGTTTAA | 0.101
CCATGAGG | -0.0279

Sequence | PBM E-score
GCAGAAAA | -0.0365
CGATATTA | 0.2
ACCCATGG | -0.149
CTTTCATC | -0.112
TCATACGA | -0.145
CGCGGCCC | 0.146
GAGCTGAC | 0.101
CAGATTCA | -0.165
ACCCTTCC | 0.227
GTGGTAAA | -0.111
GATTCTGC | 0.106
ACTTCGGC | 0.392
GCGATCGA | -0.0399
ATCAAACG | -0.105
ATCCCGAT | 0.342
GCTAATTA | 0.173
ATTGAAAA | 0.0585
ATTACTGC | -0.0877
AGCTCCCA | -0.112
GTAGAGAA | -0.0411
CCAACTAA | -0.21
CCAGAATA | 0.0555
AAAAACTC | -0.0412
AACATCTA | -0.0411
ACCGTGCA | -0.142

Sequence | PBM E-score
CCACTTCA | -0.155
CACGGTCC | -0.0699
AATCATGT | -0.272
GGTCCTCA | -0.0447
ACATAACA | 0.157
AGGTGACA | -0.128
AATGGCAG | -0.196
AGTCACCA | -0.213
ATATTTGA | -0.16
ATGCCTTA | -0.32
GAGTTTGC | 0.0913
CACTTAAG | -0.0395
CTAAGCTC | -0.163
ATGGTGCG | -0.0712
ACGGCCCT | -0.219
GCCCATGA | -0.124
GCACGCCC | -0.00802
ACTGTCTC | -0.0619
TCTGGACA | -0.0785
ATTGTGCG | -0.037
ACAGAGCG | -0.258
ACTTAAGT | -0.18
AGGATTCG | 0.0771
AGCTTCGA | -0.189
CATGAGTA | -0.0198

Sequence | PBM E-score
CCCGTCTA | 0.167
CGATTAAC | 0.125
CATTACCG | 0.277
GAGGGGAC | 0.0324
ACAGACCG | 0.164
ACACATCA | -0.0472
TAGGCGCA | -0.171
CCATGGCA | -0.225
CACAATCG | 0.181
ACCCGGGA | 0.378
GCGGAGTA | 0.146
GAAACAGC | 0.0269
CCGCTAAC | 0.152
ATCACAGC | -0.0153
AATGGGCC | 0.0391
ACCGGTCG | 0.0835
CTGTCATA | -0.259
CCCATCAC | -0.151
CGAGAAGC | 0.0689
CCCTGATC | 0.0808
ACAGAACA | -0.141
ACTCCGCA | 0.0719
CCTGCTAC | -0.106
GCTAAATA | -0.175
CTATCTTA | -0.0301

Sequence | PBM E-score
CAAATGTA | -0.016
CCGGGTGC | 0.313
CTCAACAG | -0.203
AGGTTACT | 0.0938
CAATATCA | -0.134
GTCAGAAC | -0.0619
CAGCGGAA | 0.236
GGAGTTAC | 0.142
CCGACCCG | 0.407
GACGATTA | -0.0954
GAAGACGC | -0.1
CACCCCGG | 0.163
AATCACAC | 0.122
AAAATCTT | 0.00936
AGAGGGAG | -0.191
CTTAGACC | -0.199
ACCGGCAC | 0.281
ACAGTGAG | -0.254
CCTTCCAC | -0.0187

Source: the supplement of paper PMC3334620
